Among the data in the antibiotic and cytotoxicity screens of Wong et al. (2023) are cytotoxicity call and growth inhibition call values, retold here.

Molecules are shown by their SMILES. This is one part of the list.

In test [1] the test system is HSkMC (human skeletal muscle cells). Description: cytotoxicity call (relative viability < 0.9). To be noted: 10 µM.
The subject of test [2] is HepG2. The test is described as follows: cytotoxicity call (relative viability < 0.9). The note with it: 10 µM.
In test [3] the test system is S. aureus RN4220. The test is described as follows: growth inhibition call (relative growth <= 0.2). To be noted: 50 µM.

As for `Cc1ccc(S(=O)(=O)NCC[C@H]2CC[C@H](NS(=O)(=O)c3ccccc3Cl)[C@@H](CO)O2)cc1`, the cytotoxicity call in test [1] and in test [2] was “inactive” in each case. Besides, in test [3], the growth inhibition call was “inactive”.

For the compound `COCCNC(=O)C[C@@H]1C[C@@H]2c3cc(NC(=O)Nc4ccc(C(F)(F)F)cc4)ccc3O[C@@H]2[C@@H](CO)O1`, the cytotoxicity call in test [1] and in test [2] was “inactive” throughout. For the same compound, in test [3], the growth inhibition call is “inactive”.

Regarding `C[C@H](CO)N1C[C@H](C)[C@@H](CN(C)Cc2ccc(C(=O)O)cc2)Oc2ccc(NS(C)(=O)=O)cc2CC1=O`, the cytotoxicity call in test [1] and in test [2] was “inactive” in each case. The growth inhibition call in test [3] was “inactive”.

Consider `Cc1ccc(S(=O)(=O)Nc2ccc3c(c2)C(=O)N([C@@H](C)CO)C[C@H](C)[C@H](CN(C)S(=O)(=O)c2c(C)noc2C)O3)cc1`, for which the cytotoxicity call in test [1] and in test [2] was “inactive” in each case. For the same compound, the growth inhibition call in test [3] was “inactive”.

Regarding `C[C@@H]1CCCCO[C@@H](CN(C)C(=O)C2CCCCC2)[C@@H](C)CN([C@H](C)CO)C(=O)c2cc(NS(=O)(=O)c3cccs3)ccc2O1`, the cytotoxicity call in test [1] is “inactive”. Besides, in test [2], the cytotoxicity call is “active”. Further, the growth inhibition call in test [3] is “inactive”.

For `CN1CCN(C(=O)C[C@H]2CC[C@@H]3[C@H](COC[C@@H](O)CN3S(=O)(=O)c3cccc(F)c3)O2)CC1`, the cytotoxicity call in test [1] and in test [2] was “inactive” throughout. Besides, in test [3], the growth inhibition call was “inactive”.

In the case of `C[C@@H]1CCCCO[C@H](CN(C)S(=O)(=O)c2ccc(Cl)cc2)[C@@H](C)CN([C@H](C)CO)C(=O)c2cc(NC(=O)C3CCCCC3)ccc2O1`, the cytotoxicity call in test [1] and in test [2] was “inactive” throughout. The growth inhibition call in test [3] was “inactive”.

Regarding `O=C(OCc1ccccc1)c1ccccc1`, the cytotoxicity call in test [1] is “inactive”. For the same compound, in test [2], the cytotoxicity call is “active”. The growth inhibition call in test [3] was “inactive”.

`C[C@H]1CN([C@@H](C)CO)C(=O)c2ccccc2-c2ccccc2CO[C@H]1CN(C)Cc1ccccc1C(F)(F)F`: the cytotoxicity call in test [1] and in test [2] was “inactive” in each case. The growth inhibition call in test [3] was “inactive”.
